Measured values as given in PubChem BioAssay AID1745845 (National Center for Advancing Translational Sciences (NCATS), 2022).
The whole screen tested about 360,000 compounds, of which about 2,600 (0.72%) were called active. This list was built around the results that the source calls inconclusive (neither active nor inactive); the mix of calls is not that of the screen. The call rests on the fitted dose curve; in most records, active means well fitted inhibition curve with a large enough effect; inconclusive means small, poorly fitted or top-dose-only effect; inactive means no such curve, though single readings can be large or run the other way. Potencies of inconclusive entries are doubtful fits and often do not repeat.

experiment: Primary qHTS for Inhibitors of ATXN expression; details: HEK-293 ATXN2-luciferase reporter, luminescence, 24 h; series mostly up to 57 µM; further: nearly all actives have a fitted effect of over 55% in size
Method in brief: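 qHTS (up to 57 uM final) was run with 24 h compound exposure of reporter cells at 37 °C. Each well was multiplexed: SteadyGlo luminescence measured ATXN2-luciferase expression after a fluorogenic Gly-Phe-AFC viability readout (25 uM final).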
Potency means the concentration at half of the fitted maximal effect; tags describe the fitted curve by direction and shape.

SMILES | Potency
CCCNC(=O)C1(C)CCCN(C(=O)COc2ccc(Cl)cc2Cl)C1 (centres undefined) | inactive
Cc1ccc(S(=O)(=O)NC2=C(N3CCN(c4ccccc4F)CC3)C(=O)c3ccccc3C2=O)cc1 | inactive
CCc1cccc(NC(=O)CSc2ncc3c(n2)-c2ccc(Cl)cc2N(Cc2ccccc2)S3(=O)=O)c1 | inactive
Brc1cc(-c2ccccc2)nc(-c2ccccc2)n1 | inconclusive: 39.8 µM [inhibitor, single point]
O=C(Cc1ccc(Br)cc1)N1CCN(c2ccccc2O)CC1 | inactive
COCc1c(C(=O)Nc2ccc3nc(N4CCOCC4)sc3c2)oc2ccccc12 | inconclusive: 28.2 µM [inhibitor, partial curve]
C#CC[N+](C)(C)CCCCCCCCC | inconclusive: 2.82 µM [inhibitor, full curve, poor fit]
CCCCCCCCCc1nc2sc3c(c2c(=O)n1NC(=O)c1ccc([N+](=O)[O-])cc1)CC(C)(C)OC3 | inconclusive: 22.4 µM [inhibitor, partial curve, poor fit]
COc1ccccc1/C=C/C(=O)c1ccc(NC(C)=O)cc1 | inconclusive: 39.8 µM [inhibitor, single point]
O=[N+]([O-])c1cc(S(=O)(=O)N2CCCCCC2)ccc1F | inconclusive: 35.5 µM [inhibitor, single point]
O=S1(=O)N[C@@H](Cc2ccccc2)COc2cccc(N3CCN(Cc4ccccc4F)CC3)c21 | inconclusive: 39.8 µM [inhibitor, single point]
COc1ccc(NC(=O)c2cn(CC(C)C)c(=O)c3cc(OC)c(OC)cc23)cc1Cl | inactive
CSc1nc(C)cc(SCC(=O)Nc2ccc(Cl)cc2Cl)n1 | inconclusive: 17.8 µM [inhibitor, partial curve]
COc1ccc(C2=Nn3c(nnc3-c3ccccc3Cl)SC2)cc1OC1CCCC1 | inconclusive: 39.8 µM [inhibitor, single point]
Cc1c(C(=O)OCC(=O)NCc2ccco2)cccc1[N+](=O)[O-] | inactive
Cc1ccc(NC(=O)CN(c2ccccc2)S(=O)(=O)N(C)C)cc1Cl | inconclusive: 35.5 µM [inhibitor, single point]
Cc1ccc(NC(=O)NCc2ccc3c(c2)CCN3C(=O)c2ccccc2)c(Cl)c1 | inactive
CC(C)CN=C(NS(=O)(=O)c1ccccc1)C(Cl)(Cl)Cl | inconclusive: 35.5 µM [inhibitor, single point]
Oc1ccc(N=Cc2ccc(-c3cccs3)s2)cc1 | inconclusive: 2.82 µM [inhibitor, partial curve, poor fit]
